Numbering of substitutions follows the chain as printed. The list shows a part of the results.

Sequences and labels used below:
B1: chr2:179515052:179515053:+_ENSMUSG00000000305_ENSMUST00000000314|mus_hu|mus_mus_mus_hu_False|68_68 (ssRNA)
RNA: GGGAGUUCUACAGUCCGACGAUCGCUGUCCCAUGCAGUCACCGUGAACGCCACCUGCUCGGAGGGGAUCUUCAACUCCCGGGUGGCGAAGACUGUCCCAUCUGCCCCAACUUUGAAGUCCAUGCUGUUGGUCUCAUAUUGUGUCAACAGAGGAUUGAGCAUCA
B2: chr10:89103549:89103550:-_ENSMUSG00000069539_ENSMUST00000105294|mus_mus|FALSE|FALSE (ssRNA)
RNA: GGGAGUUCUACAGUCCGACGAUCUAUCGGUUGGUCUCUGUUGAGGCUGCUUCACGCUAGCAGGAGGAAUAGUCAAAGGGCUAAAGUUUGACAUAGUGGGAGGUGCUCCCAGACUCAUGGUGGUCACGCCAGCUGUGCCCGUCCCAACAGAGGAUUGAGCAUCA
B3: chr4:25749455:25749456:-_ENSG00000091490_ENST00000264868|hu_hu|FALSE|FALSE (ssRNA)
RNA: GGGAGUUCUACAGUCCGACGAUCGGAAGCACUAGGACCCUAGAAAAAUUCAAGGAGAAAAAUGUAAACCAAUUUACAAAGCUAUUGCCCUCCCUGCAUUUCCAGGCACAAACAAUUUAUUUCAAGGUGCCUUAUAACUGCUAGCAACAGAGGAUUGAGCAUCA
B4: chr5:128440902:128440903:+_ENSG00000066583_ENST00000173527|hu_mus|hu_hu_hu_mus_True|58_108 (ssRNA)
RNA: GGGAGUUCUACAGUCCGACGAUCUUGAACCGUGCUCCCAAGUCCUUUGGGGUAUUGUUCCGUUAUGAUAACUGGAAUUCCUAAAAUCCGAGCUCCUUGCAACAGUCUCUGUCCCACACUAAUGAUGUCCCCAAAGUAUUUGAUCAACAGAGGAUUGAGCAUCA
B5: 35545365_35547799_1079_CDS_ENSG00000101347_ENST00000262878|human|control|control (ssRNA)
RNA: GGGAGUUCUACAGUCCGACGAUCCCAUUUGUCCACAUCAAUGCCAUUUCUUUUAUUAGAUACUAUCUCAUAAAGGAAGCUUUUGUUUUCAGGACGCCCUUUAUAUGGCCACAAUGAAUCUUCGACAGGUGAUUCAAGUGGUCCCAACAGAGGAUUGAGCAUCA
B6: chr3:176767854:176767855:-_ENSG00000177565_ENST00000430069|hu_hu|hu_hu_hu_mus_False|98_98 (ssRNA)
RNA: GGGAGUUCUACAGUCCGACGAUCGACAUCCUUGUUACUUGGAACAUCCUGCCCUCCUUCCCGUAUGCAGUGUCUAAGCACGAGCUGCGUAGGGCCACUCGUGCUGUUCUCACUGAGGUUCCAGAUUCUUGCCGUGGAGUCUCCCAACAGAGGAUUGAGCAUCA
B7: 44956482_44957145_737_3pUTR_ENSG00000175274_ENST00000395648|human|control|control (ssRNA)
RNA: GGGAGUUCUACAGUCCGACGAUCGAUGACGACAAAAAGGAGGCGGCUGACCAGGAGCAGCAGGAUCCCCAGGGACAUGAGGCCCGUCUCAGCUAGCGUGGCAGUGACCACCAAGAACUGGACCCCGAAAUAGCAAGCUUCGGUCAACAGAGGAUUGAGCAUCA
B8: chr5:21408736:21408737:-_ENSMUSG00000042453_ENSMUST00000161356|mus_hu|mus_mus_mus_hu_False|98_98 (ssRNA)
RNA: GGGAGUUCUACAGUCCGACGAUCGUUGACAGAGUUGUAAAUGGUGGCUUCAUGGAACUGGAAAGGGGAGCAGCCAAUGCUGUUAGAAGAGGAAGGAAGGCACUGGGUCUGUACGAGCUGCCAGGAAUCCGAUCUUGCAUCCUUCAACAGAGGAUUGAGCAUCA
B9: chr9:91931296:91931297:+_ENSG00000123975_ENST00000314355|hu_hu|hu_hu_hu_mus_True|48_48 (ssRNA)
RNA: GGGAGUUCUACAGUCCGACGAUCAGAUUAGAUGAUCCCAGCUGCACUUCAUUUUUGUUGUUCUUUUGGAAGAGGUCGUCUAAAGAGAAGAAUAUGUGGUUCUGGCUCAUGAAUCAUGUAAUGAACCCAUCCUAGACUCUGUUGCAACAGAGGAUUGAGCAUCA
B10: chr5:5249095:5249096:-_ENSMUSG00000028926_ENSMUST00000030763|mus_hu|FALSE|FALSE (ssRNA)
RNA: GGGAGUUCUACAGUCCGACGAUCCUUAAAGUUAAUGCAAGCAUUGUUCUCAGAAUGCACCCUCUUUACUUGAUUAGCUGGUUUCUCAAAUGGGUCAAAAGUGCUCUGUGUCCUCUGAACUCUGACUUUUUUAUCCUCAGGAAUCAACAGAGGAUUGAGCAUCA
B11: chr2:60072956:60072957:+_ENSMUSG00000026977_ENSMUST00000102748|mus_mus|FALSE|FALSE (ssRNA)
RNA: GGGAGUUCUACAGUCCGACGAUCUGCACUUUUAGCUUUAUCAUUUUUCCCAUCAGUUGAAUUCCAACCAGAAGGAAUAAUAUCUACAGUAAUCAUGACAUUGUCAGCCAGAUUACUGCCGAGUGCUGGUGGGACUGCAAACCGCAACAGAGGAUUGAGCAUCA
B12: chr9:14812383:14812384:-_ENSMUSG00000031934_ENSMUST00000164273|mus_mus|mus_mus_mus_hu_True|1_78 (ssRNA)
RNA: GGGAGUUCUACAGUCCGACGAUCAUAGCCCAGGUAGAUACACGCUAACAGUAUAAUCACAAAUGUCAGCAGGCGGCAGCUAAUGUACUUGAUGAUUAAAUUAUUAGAAUUUUUCUUUGUCUUCAAGUACUGCUCCACGAUUGGCAACAGAGGAUUGAGCAUCA
B13: chr5:128440902:128440903:+_ENSG00000066583_ENST00000173527|hu_mus|hu_hu_hu_mus_True|48_108 (ssRNA)
RNA: B4 RNA with U78C, A84G, A90G, U93C
B14: 45009487_45009607_501_3pUTR_ENSMUSG00000036097_ENSMUST00000096053|mouse|control|control (ssRNA)
RNA: GGGAGUUCUACAGUCCGACGAUCGUGGUGCUCCUUCCCACCUUUCAUGAAAGCCUCUAAAAUAGGACUUUCUUCUGAUGACAUCCUCUUAGGUUUAAGUUUUUUUGGUGAAGAUAAUUUCCUUUCAAAUUGCUCUGUCCCAGUCAACAGAGGAUUGAGCAUCA
B15: 222886003_222886123_169_5pUTR_ENSG00000162819_ENST00000340934|human|control|control (ssRNA)
RNA: GGGAGUUCUACAGUCCGACGAUCAUGAUAGCUACCGAGGCGGUAGUGCGCGCAGCUCAGGGGCGGGUAUUGCCGCGGCGUUGCAGUCCCCUCAAAACGCUUCGUUCAUCAUCCCUUUCUAACUUCUCCCUCGGCCUUCCUUUUCAACAGAGGAUUGAGCAUCA
B16: 116287005_116291584_275_CDS_ENSMUSG00000028693_ENSMUST00000030457|mouse|control|control (ssRNA)
RNA: GGGAGUUCUACAGUCCGACGAUCCUUCUUACCUAAAAGACUAGCUGCUUCCUGGAAUGCAUUAACAGCUGCUGGAAUGUCACCCAUCACCAGAUGUUUCUGUCCUAAUCCCAGUAGUUUCUUAGCUUCACUAUCCACAUCCAGCAACAGAGGAUUGAGCAUCA
B17: 66463108_66463409_5036_CDS_ENSMUSG00000015222_ENSMUST00000114013|mouse|control|control (ssRNA)
RNA: GGGAGUUCUACAGUCCGACGAUCAGUUGGUCUAGUGUAUUUGAUAGCAGGUUUUAAAAUGAGUUUCCUGGAAGGAGAGUGGGCCUGAACUUCUGAUUUUUUAGCAAGUUCAGCCUUCUUAUAAACUGCUUUUUUCCUUCUCACCAACAGAGGAUUGAGCAUCA
B18: chr2:74399864:74399865:-_ENSG00000114978_ENST00000396049|hu_hu|FALSE|FALSE (ssRNA)
RNA: GGGAGUUCUACAGUCCGACGAUCAGAGUUCAUACUGAUGAGAUCCUUCAGGGAUAUUCUUCUUUGGUUUGAAUGUUUUAGAAGAGCGGCUGCUGAAGAGGAAGCUCAUCUUCGGUCCUCAGAGGGGAGGCGAGGGGCCCCUGGCAACAGAGGAUUGAGCAUCA
B19: chr19:10649910:10649911:-_ENSMUSG00000024666_ENSMUST00000025568|mus_hu|FALSE|FALSE (ssRNA)
RNA: GGGAGUUCUACAGUCCGACGAUCGCAUCUUCCUUCUGUUUUCUCGGGCCCCCAAGGGCACAUCCCACAGUUCCCAGAAAACCGCUCCUGGCUGUCUCCCUACCACUGAGGGAGAGGCUUCUAGUUCCUUUGAAUGAGAGCUGUCAACAGAGGAUUGAGCAUCA
B20: chr3:148802587:148802588:-_ENSG00000071794_ENST00000310053|hu_mus|hu_hu_hu_mus_False|8_108 (ssRNA)
RNA: GGGAGUUCUACAGUCCGACGAUCUCCAACCACAUGACCUCUCAUAGUUCCAAAUAAAACCAAAUCUUGCUCUUCAUCACUCGUUAGGAAGUCAUCUGGAGGAAUAAUGUCUUGGAAUUCAAAAUGUGGAAAGAAAGUUGAGUACAACAGAGGAUUGAGCAUCA
B21: 7556756_7557214_644_CDS_ENSG00000129244_ENST00000250111|human|control|control (ssRNA)
RNA: GGGAGUUCUACAGUCCGACGAUCGUCACUGACAUUGACAAUGACAUCAAGGUUCUCAGUCUUGGGGCGAAUCAUCAAGCCCGGUGUGGCCAGUCGGUCCUGGUACUUGGGGGUAUGGUCGGAGACAGUCUGCAGCAUCACCCACAACAGAGGAUUGAGCAUCA
B22: 123327785_123327905_1134_CDS_ENSMUSG00000035202_ENSMUST00000038863|mouse|control|control (ssRNA)
RNA: GGGAGUUCUACAGUCCGACGAUCAGGGACUAGUGCCUUCUGCAAGGCUUUCUUCACAGAGCUGCAGCCAUGUAGAAGCCCGUGGCUAGGAGAGAUGGCCACGUGGGAGAUGCCAUAGAUGGCCUCAGGGGUGGCUGUGUAUGCCAACAGAGGAUUGAGCAUCA

For the assay, the target named is T1, UNK ZnF1-3 (human, UniProt Q9C0B0 31-174).
T1 sequence: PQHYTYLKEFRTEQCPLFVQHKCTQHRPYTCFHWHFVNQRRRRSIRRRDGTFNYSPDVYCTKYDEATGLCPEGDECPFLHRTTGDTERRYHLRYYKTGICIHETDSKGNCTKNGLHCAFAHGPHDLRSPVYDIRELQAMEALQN
As to the kind of experiment: nsRBNS (natural sequence RNA bind-n-seq); RBNS binding buffer (assumed for nsRBNS): 25 mM Tris pH 7.5, 150 mM KCl, 3 mM MgCl2, 0.01% Triton X-100, 500 ug/ml BSA, 20 U/ml SUPERase-In, 4 C; UNK is unkempt and MSI1 is Musashi-1; names of the RNAs are library labels; protein concentration not given here; high values mean tight binding.
The molecule B1 yielded a binding signal of 0.721 enrichment R.

In turn, B2 displayed a binding signal of 0.8 enrichment R.

Turning to B3, the binding signal is 1.44 enrichment R.

For B4, the binding signal is 0.766 enrichment R.

The molecule B5 gave a binding signal of 0.604 enrichment R.

On to B6, for which the binding signal turned out to be 0.583 enrichment R.

On to B7, for which the binding signal was 1.74 enrichment R.

The molecule B8 yielded a binding signal of 1.82 enrichment R.

B9 yielded a binding signal of 1.07 enrichment R.

Regarding B10, the binding signal is 0.832 enrichment R.

In the case of B11, the binding signal was 0.392 enrichment R.

B12 displayed a binding signal of 1.44 enrichment R.

As to B13, the binding signal came out at 0.679 enrichment R.

The molecule B14 returned a binding signal of 0.587 enrichment R.

As for B15, the binding signal amounted to 0.775 enrichment R.

For the molecule B16, the binding signal was determined as 0.631 enrichment R.

Molecule B17 yielded a binding signal of 0.974 enrichment R.

Take B18: the binding signal was determined as 0.926 enrichment R.

B19 came in with a binding signal of 0.941 enrichment R.

Regarding B20, the binding signal was 1.33 enrichment R.

On to B21, for which the binding signal turned out to be 1.21 enrichment R.

B22: the binding signal is 0.877 enrichment R.

The record behind these values is PMC12136788.
